The campaign covered roughly 410,000 compounds. About 530 (0.13%) were called active. Inconclusive means that the source gave no clear call. Such entries were picked first, then a sample of the others. Calls come from the whole dose curve; as a rule, active = well fitted inhibition curve with a large enough effect; inconclusive = small, poorly fitted or top-dose-only effect, or another doubt; inactive = no such curve, though single readings can be large or run the other way. A potency beside an inconclusive call is a rough fit, not a confirmed value.
Test: qHTS of GLP-1 Receptor Inverse Agonists: Cytotox Screen
Conditions: HEK293 cAMP-luciferase reporter cells, luminescence, 24 h; series mostly up to 38.3 µM
Outline: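 Quantitative HTS format, 1536 wells, 200 cells/uL seeded. Compounds: 23 nL, 24 h, 37 °C. Detection: luciferase reagent, luminescence at 12 min RT; decreased signal taken as cytotoxic.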
In the case of `O=[N+]([O-])c1cc(/C=N\Nc2nc(-c3ccccc3)cs2)ccc1O`, the Potency is reported as inconclusive: 7.94 µM [inhibitor, partial curve]. With `CCNC(=S)/N=C(/Nc1ccccc1)Nc1nc(C)cc(C)n1` the Potency was inconclusive: 22.4 µM [inhibitor, single point]. In the case of `C=CCN1C(=O)OC2(CCCCC2)C1(C)O` (stereo not drawn), the Potency is reported as inconclusive: 11.2 µM [inhibitor, single point]. With `CCCCCn1cc2c(c1-c1ccc(Cl)cc1)c(=O)n(C)c(=O)n2C` the Potency was “inactive”. With `Cc1cccc(C(=O)Nc2ccc3oc(-c4ccncc4)nc3c2)c1` the Potency was “inactive”. In the case of `COc1ccc2cc(CNCCOCCOCCNCc3ccc4cc(OC)ccc4c3)ccc2c1`, the Potency is reported as active: 3.98 µM. For `Cc1ccsc1/C=C1/SC(N2CC(C)OC(C)C2)=NC1=O` (stereo not drawn), the Potency was inconclusive: 14.1 µM [inhibitor, single point]. For `CCc1ccccc1NC(=O)Cn1nnc(C(=O)NCc2cccs2)c1N`, the Potency was inconclusive: 1.41 µM [inhibitor, full curve, poor fit]. In the case of `COc1cc(-c2nc(C(=O)NC3CCN(Cc4ccccc4)CC3)cc3c2[nH]c2ccccc23)cc(OC)c1OC`, the Potency is reported as inconclusive: 6.31 µM [inhibitor, partial curve, poor fit]. For `CCCCCCCCCCCCCCCC(O)C[N+](C)(C)CCO` (stereo not drawn), the Potency was inconclusive: 28.2 µM [inhibitor, single point]. With `COc1cc(NC(=O)Cc2ccc(Cl)cc2)ccc1NC(=O)c1ccco1` the Potency was inconclusive: 10 µM [inhibitor, partial curve, poor fit]. In the case of `COc1ccc(NC2CCCN(C(=O)c3ccc4[nH]c(C)c(C)c4c3)C2)cc1OC` (stereo not drawn), the Potency is reported as inconclusive: 28.2 µM [inhibitor, single point]. In the case of `COc1cccc(C2C(C(=O)Nc3ccccc3)=C(C)Nc3nnnn32)c1OC` (stereo not drawn), the Potency is reported as “inactive”. In the case of `COc1ccc(OC)c(Nc2cc(C)nc3ccccc23)c1`, the Potency is reported as inconclusive: 12.6 µM [inhibitor, partial curve, poor fit]. In the case of `CCOc1ccc2[nH]c3c(N4CCN(c5ccccn5)CC4)ncnc3c2c1`, the Potency is reported as inconclusive: 28.2 µM [inhibitor, single point]. For `Cc1cc(C)cc(OCC(=O)Nc2ccc(Cl)c(-c3nc4ncccc4o3)c2)c1`, the Potency was “inactive”. For `CC1CC1C(=O)OCC(=O)N(C)CC(=O)Nc1ccc(F)cc1` (stereo not drawn), the Potency was “inactive”. For `Cc1ccc(S(=O)(=O)NCC2CCC(C(=O)N3CCOCC3)CC2)cc1` (stereo not drawn), the Potency was inconclusive: 28.2 µM [inhibitor, partial curve, poor fit]. For `CCCSc1ccc([C@H]2N[C@@](CC(C)C)(C(=O)OC)[C@H]3C(=O)N(CC)C(=O)[C@@H]23)cc1`, the Potency was inconclusive: 0.501 µM [inhibitor, full curve, poor fit]. In the case of `O=S(=O)(NCCc1ccc(F)cc1)c1cccc2cccnc12`, the Potency is reported as inconclusive: 28.2 µM [inhibitor, single point]. In the case of `CC1=C(C(=O)Nc2ccccc2C(=O)NC2CCCCC2)SCCO1`, the Potency is reported as inconclusive: 28.2 µM [inhibitor, single point]. For `COCCCNC(=S)NCCNc1nc2cc(C)cc(C)c2cc1C#N`, the Potency was inconclusive: 15.8 µM [inhibitor, single point]. In the case of `COc1ccc(S(=O)(=O)NCc2ccc3c(c2)CCN3C(=O)c2ccc(C)cc2)cc1Cl`, the Potency is reported as “inactive”. With `CCCCn1cnc2c(Sc3c([N+](=O)[O-])ncn3C)nc(N)nc21` the Potency was inconclusive: 7.08 µM [inhibitor, partial curve, poor fit]. With `CC(C)CC(=O)NC(=S)Nc1ccccn1` the Potency was “inactive”. With `Cc1nc2c(C(=O)NCc3ccc4c(c3)OCO4)cnn2c(C)c1Cc1ccc(F)cc1Cl` the Potency was “inactive”. With `CC(C)(C)Cc1c(-c2ccccc2)nc2ccc(Br)cn12` the Potency was inconclusive: 31.6 µM [inhibitor, single point]. For `COc1cccc(C(N)c2nc(-c3csc4ccccc34)cs2)c1` (stereo not drawn), the Potency was inconclusive: 6.31 µM [inhibitor, partial curve, poor fit]. In the case of `CC(=O)CC1OC(=O)C(Br)=C1NCc1ccccc1` (stereo not drawn), the Potency is reported as inconclusive: 14.1 µM [inhibitor, single point]. With `CCN(CC(=O)Nc1ccc(NC(C)=O)cc1)C(=O)c1cc(-c2ccccc2Cl)nc2ccccc12` the Potency was inconclusive: 28.2 µM [inhibitor, single point]. For `O=C(Cc1ccc(S(=O)(=O)N2CCOCC2)s1)Nc1ccc(Br)c(C(F)(F)F)c1`, the Potency was inconclusive: 28.2 µM [inhibitor, single point]. In the case of `O=C(Nc1cccc(-c2cn3cccnc3n2)c1)Nc1ccccc1F`, the Potency is reported as inconclusive: 12.6 µM [inhibitor, single point]. In the case of `COc1ccc(N2CCN(CCCNC(=O)c3cc(Nc4ccccc4OC)nc4ccccc34)CC2)cc1`, the Potency is reported as inconclusive: 8.91 µM [inhibitor, partial curve, poor fit]. In the case of `CCN(Cc1nc2cc(Cl)ccc2c(=O)[nH]1)C(=O)c1cccc(NC(=O)c2cccs2)c1`, the Potency is reported as inconclusive: 28.2 µM [inhibitor, single point]. With `CCCN1CCC(N(C)CCc2ccc(OC)c(OC)c2)CC1` the Potency was inconclusive: 10 µM [inhibitor, single point]. For `Cc1ccc(OCC(=O)Nc2ccc(S(=O)(=O)N(C)C3CCN(C)CC3)cc2)c(C)c1`, the Potency was “inactive”. With `Cc1ccc(NC(=S)N/N=C/c2ccc([N+](=O)[O-])s2)cc1` the Potency was inconclusive: 28.2 µM [inhibitor, single point]. For `O=C(Cn1c(-c2cccs2)cc2ccccc21)NCc1ccccc1Br`, the Potency was “inactive”. With `CCCOc1ccccc1C1NC(=O)NC(C)=C1C(=O)OCCOC(C)C` (stereo not drawn) the Potency was inconclusive: 15.8 µM [inhibitor, partial curve, poor fit]. With `COc1ccc(-n2c(CCc3ccccc3)nnc2SCC(=O)c2ccc(Cl)cc2)cc1` the Potency was “inactive”. In the case of `O=[N+]([O-])c1ccc(N2CCCC2)cc1NC1CC1`, the Potency is reported as inconclusive: 11.2 µM [inhibitor, partial curve, poor fit]. In the case of `CC(CCc1ccccc1)NC(=O)Cn1cccc1C(=O)c1ccccc1` (stereo not drawn), the Potency is reported as “inactive”. For `COc1ccccc1NC(=O)N(Cc1ccco1)Cc1cc2ccc(C)c(C)c2[nH]c1=O`, the Potency was inconclusive: 2.82 µM [inhibitor, partial curve, poor fit].
Potency is the fitted concentration of half-maximal effect.
